PubChem BioAssay AID463173 (ICCB-Longwood Screening Facility, Harvard Medical School, 2010)
Hit rate of the full screen: of about 52,000 compounds, about 4,300 (8.3%) were called active. Rule as the data show it: active = survival mostly below about 52% (no sharp cut-off); inactive = mostly above about 56%. Some of the results follow.

Tested on: DeltatarO mutant
Test: growth inhibition of S. aureus wild type versus tarO mutant, primary screen, teichoic acid synthesis inhibitors, RN4220, OD600 (AID 463173)
Conditions: OD600, 18 h, stronger effect = lower value, screened at 18.75 µg/mL (by protocol)

Structure (SMILES) | survival
Cc1ccc(S(=O)(=O)NCCc2cn3ccsc3n2)c(C)c1 | inactive: 72%
COc1cccc(NC(=O)Cn2cc(C(=O)c3ccc(C)cc3)c(=O)c3cc(OC)ccc32)c1 | inactive: 72%
COc1ccccc1-c1cc(C(=O)NCc2ccccc2)c2c(-c3ccc(C)cc3)[nH]nc2n1 | inactive: 80%
O=C(Nc1ncc(Cc2ccccc2)s1)C1CCCO1 (stereo not drawn) | inactive: 101%
COc1ccc(NC(=O)c2oc3ccccc3c2NC(=O)Cc2coc3c(C)c(C)ccc23)cc1 | inactive: 74%
CC(C)C(c1nnnn1Cc1ccccc1)N1CCC(C(N)=O)CC1 (stereo not drawn) | inactive: 67%
COc1ccc(-c2nc3cc(NC(=O)CSc4ccc(C)cc4)ccc3o2)cc1 | inactive: 66%
C=CCc1c(C)nc(SC)[nH]c1=O | inactive: 99%
Cc1ccc(S(=O)(=O)c2nc(S(=O)(=O)c3ccccc3)sc2NCCCOC(C)C)cc1 | inactive: 71%
CCc1ccc(NC(=O)Cn2ccn(-c3ccc(C)c(C)c3)c(=O)c2=O)cc1 | inactive: 104%
CCCN(CCC)C(=O)Cn1c(=O)n(CCCCCC(=O)NCc2ccc3c(c2)OCO3)c(=O)c2sccc21 | inactive: 87%
CCOc1ccccc1CNC(=O)c1oc2c(c1C)-c1[nH]ncc1CC2 | inactive: 89%
CC1CCN(c2ncnc3c2c(-c2ccccc2)cn3-c2ccc(Br)cc2)CC1 | inactive: 84%
Cc1ccc(C)n1-c1nnc(N2CCCC(C(=O)Nc3ccccc3Br)C2)s1 (stereo not drawn) | inactive: 96%
CCOC(=O)c1c(NC(=O)c2cc(OC)c(OC)c(OC)c2)sc2c1CCCC2 | inactive: 81%
COc1ccc(Cn2nnnc2C(c2ccccn2)N2CCc3ccccc3C2)cc1 (stereo not drawn) | inactive: 74%
CC1(C)OC2C(CO)OC(n3ncc(=O)[nH]c3=O)C2O1 (stereo not drawn) | inactive: 86%
CC(=O)Nc1ccc(Nc2ncnc3c2cnn3C)cc1 | inactive: 94%
COc1ccccc1-c1cc2nc(C)c(CCC(=O)NCCc3cccc(C)c3)c(C)n2n1 | inactive: 55%
O=C(CCCCCn1c(=O)c2sccc2n(CC(=O)Nc2cc(C(F)(F)F)ccc2Cl)c1=O)NCc1ccccc1Cl | inactive: 73%

Structure (SMILES) | survival
CCc1cccc(-n2c(=O)c3cccnc3n2CC(=O)NCc2ccc(C)cc2)c1 | inactive: 78%
C#CCN1CCc2cc(OC)c(OC)cc2C1C (stereo not drawn) | inactive: 101%
Cc1ccc(NC(=O)Cn2cnc3onc(-c4ccc(F)cc4)c3c2=O)c(Cl)c1 | inactive: 82%
Cc1ccc(NC(=O)c2cc3ccccn3n2)cc1F | inactive: 86%
O=C(CN1C(=O)C2(SCC(=O)N2c2cccc(Cl)c2)c2ccccc21)NCc1ccccc1 (stereo not drawn) | inactive: 73%
O=C(CSc1nnc(-c2ccc(Cl)cc2)o1)c1ccc(Cl)cc1 | inactive: 89%
COc1ccc(-c2cn3nc(N4CCC(C(=O)Nc5cc(Cl)ccc5C)CC4)sc3n2)cc1 | inactive: 78%
CC(C)(C)c1ccc(OCC(=O)NCC2(N3CCOCC3)CCCCC2)cc1 | inactive: 79%
Cc1cc(C)c(NC(=O)Cn2c(=O)n(CCC(=O)NCc3ccccc3Cl)c(=O)c3sccc32)c(C)c1 | inactive: 87%
C=CCn1c(NC(=O)CC)nc2ccccc21 | inactive: 70%
CSc1ncc(C(=O)NCc2ccc(C)cc2)c(C)n1 | inactive: 69%
COc1ccc(C(=O)Nc2ccc3nc(SCC(=O)N(C)c4ccccc4)sc3c2)cc1 | inactive: 101%
O=C(CSc1cn(CCNC(=O)c2cccc(C(F)(F)F)c2)c2ccccc12)Nc1ccc2c(c1)OCCO2 | inactive: 87%
CC(C)(C)c1ccc2c(c1)N(CC(=O)NCCCN1CCN(c3ccccc3F)CC1)C(=O)CO2 | inactive: 91%
Cc1ccc(N)cc1N(C)C | inactive: 78%
Cc1ccc(Cl)cc1N1CCN(C(=O)CSc2cc(=O)n(C)c3ccccc23)CC1 | inactive: 63%
Cc1cccc(CC(=O)Nc2ccc3nc(N4CCC(C)CC4)cc(C)c3c2)c1 | active: 4%
CC(Oc1ccc(Cl)cc1Cl)C(=O)NNc1nc(Cl)nc(N(C)C)n1 (stereo not drawn) | inactive: 81%
CC1=C(C(=O)Nc2cc(Cl)ccc2C)C(c2sccc2C)n2ncnc2N1 (stereo not drawn) | inactive: 55%
CCOc1ccc(S(=O)(=O)NCCc2c(C)[nH]c3c(Cl)cccc23)cc1C | inactive: 55%

Structure (SMILES) | survival
CC(C)N(C(=O)Cn1cc(S(=O)(=O)Cc2ccc(Br)cc2)c2ccccc21)C(C)C | inactive: 65%
CC1CCN(S(=O)(=O)c2ccc3c(c2)N(CC(=O)NCCCN2CCCCC2)C(=O)CS3)CC1 | inactive: 72%
Cc1ccc(CNC(=O)c2cc(-c3ccc(C)cc3)nc3n[nH]c(-c4cccc([N+](=O)[O-])c4)c23)cc1 | inactive: 78%
O=C(c1ccc(F)cc1)N1CCC(c2nc3ccccc3s2)CC1 | inactive: 76%
O=C(NCCc1ccc(Cl)cc1)C(=O)NCC(c1cccs1)S(=O)(=O)c1cccs1 (stereo not drawn) | inactive: 70%
CCC(C)NC(=O)CSc1c2c(nc3cc(Cl)ccc13)CCCC2 (stereo not drawn) | inactive: 82%
O=C(Nc1ccc2nc(SCC(=O)N3CCOCC3)sc2c1)c1ccc(Br)cc1 | inactive: 83%
COc1ccc(C(=O)Nc2cc(-c3nc4ccccc4s3)ccc2OC)cc1 | active: 19%
O=C(CN(CCO)CCO)N(C1CCCCC1)C1CCCCC1 | inactive: 87%
CCCOC1(C(F)(F)F)NC(=O)N(c2cccc(Cl)c2)C1=O (stereo not drawn) | inactive: 65%
C=Cc1ccc(Cn2c(C(=O)O)c(CNC3CCCCC3)c3ccc(OC)cc32)cc1 | inactive: 114%
COc1cccc(CNC(=O)C(=O)NCC(c2ccc3c(c2)OCO3)N2CCOCC2)c1 (stereo not drawn) | inactive: 78%
CCNc1nc(NCC)nc(NCCO)n1 | inactive: 74%
CCCN1CCN(CC2=C(C(=O)OCC)C(c3ccc(OC(C)C)cc3)NC(=O)N2)CC1 (stereo not drawn) | inactive: 78%
CCn1c(=O)c(=O)n(CC)c2cc(N3CCCCC3)c(NC(=O)c3ccccc3OC)cc21 | inactive: 91%
CSc1nc2c(sc3ccccc32)c(=O)n1Cc1ccc(C)cc1 | inactive: 96%
COc1ccccc1-c1c(C)nn2c(N3CCN(c4ccccc4)CC3)cc(C)nc12 | inactive: 89%
CCOc1ccc(-c2nc(CSCC(=O)NCCc3ccc(OCC)c(OCC)c3)c(C)o2)cc1 | inactive: 84%
